This is an account of results in publication PMC13083723 (Patterns, 2026).

Molecules are shown by their SMILES. Screen size: about 5,400 compounds; about 190 (3.5%) showed an effect of 50% or more. The list shows a part of the results. Starred links: 1 amine or outer side, 2 acyl side, 3 side chain; linkers in the order of their positions; H or OH if unused. Positions of bridges follow the written chain, without caps; N, C: chain ends. Non-standard residues stand in square brackets, D forms with d. Residues, ends and D or L forms follow the SMILES beside them. ξ: configuration not given here. *: point of attachment. pTerphenylCO(4''-OnC5H11) = CCCCCOc1ccc(-c2ccc(-c3ccc(C(=O)*)cc3)cc2)cc1; ξOrn(4,5-diOH) = O=C(C(CC(O)C(O)N[*:3])N[*:1])[*:2]; ξhTyr(βξ-OH,γξ-OH) = NC(C(=O)O)C(O)C(O)c1ccc(O)cc1; ξPro(3ξ-OH,4ξ-Me) = CC1CNC(C(=O)O)C1O; Hyp = O=C(O)[CH]1C[CH](O)CN1

The assay relates to Vero-E6. Nature of the assay: primary screen, phospholipidosis by LipidTOX staining; higher = more effect of the substance. The settings on record: 10 µM. Summed up: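 Single-concentration screen at 10 μM, with DMSO 0.1 v/v % and amiodarone 10 μM as controls. Read-out is LipidTOX Red phospholipid staining, which tolerates aldehyde fixation, in Vero-E6 cells.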
Take `CC(C)(C)N1CCC(c2ccccc2)(c2ccccc2)CC1`: the result_ITMP came out at 4.66%.

On to `Brc1cc2c(cc1[C@@H]1Nc3ccccc3[C@@H]3C=CC[C@@H]31)OCO2.Brc1cc2c(cc1[C@H]1Nc3ccccc3[C@H]3C=CC[C@H]31)OCO2`, for which the result_ITMP is -7.91%.

As to `O=C(N[C@H]1CN2CCC1CC2)c1cc2cccc(Cl)c2s1`, the result_ITMP is 100%.

As for `CC(C)Cc1ccc(C(C)C(=O)NO)cc1` (stereo not shown), the result_ITMP is -0.01%.

On to `O=C(O[C@H]1[C@H](OC(=O)c2cccnc2)[C@@H](OC(=O)c2cccnc2)[C@H](OC(=O)c2cccnc2)[C@@H](OC(=O)c2cccnc2)[C@H]1OC(=O)c1cccnc1)c1cccnc1`, for which the result_ITMP is -0.95%.

`O=C(O[C@H]1C[N+]2(CCCOc3ccccc3)CCC1CC2)C(O)(c1cccs1)c1cccs1`: the result_ITMP was -4.72%.

As for `O=C(NOCC1CC1)c1ccc(F)c(F)c1Nc1ccc(I)cc1Cl`, the result_ITMP was 1.02%.

Consider `COc1cc2c(c(OC)c1OC)-c1c(cc3c(c1OC)OCO3)C[C@@H](C)[C@@H](C)C2`, for which the result_ITMP was -6.33%.

Take `CC1(C)[C@@H]2C[C@H]1[C@@](C)(O)[C@@H](O)C2`: the result_ITMP is recorded as -2.34%.

For `Nc1nc(F)nc2c1ncn2[C@@H]1O[C@H](COP(=O)(O)O)[C@@H](O)[C@@H]1O`, the result_ITMP worked out at 3.27%.

For the molecule `O=C1[N-]C(=O)C(c2ccccc2)(c2ccccc2)N1`, the result_ITMP was -1.89%.

Take `CNc1nc(-c2ccc3c(N)n[nH]c3c2)cc(N2C[C@@H](C(=O)NC3CCCCC3)CC[C@H]2C)n1`: the result_ITMP was -1.68%.

In the case of `Cc1cc(Nc2cc(C)c(C#N)c(NC(C)CCCC(C)(C)O)n2)n[nH]1` (stereo not shown), the result_ITMP is given as 6.88%.

Take `C[C@]12CC[C@H](O)C[C@H]1CC[C@@H]1[C@@H]2C[C@@H](O)[C@]2(C)[C@@H](C3=CC(=O)OC3)CC[C@]12O`: the result_ITMP is given as -11%.

Regarding `CN1CCN(S(=O)(=O)c2ccc(-c3cnc(N)c(C(=O)Nc4cccnc4)n3)cc2)CC1`, the result_ITMP is listed as -3.23%.

As to `COc1ccc(-c2coc3cc(O)ccc3c2=O)cc1`, the result_ITMP was -8.95%.

In the case of `CC(N)(C(=O)O)c1ccc(-c2nnn[nH]2)cc1` (stereo not shown), the result_ITMP is -9.78%.

`C[C@H](Nc1ncnc2[nH]cnc12)c1cc2ccc(F)cc2nc1-c1ccccn1` [R4A_0002240_001 / SPE_A58947127]: the result_ITMP was 4.77%.

With `Nc1nc(=O)n([C@@H]2O[C@H](CO)[C@@H](O)[C@@H]2F)cc1I`, the result_ITMP is -2.6%.

For `Oc1c(Br)cc(Br)c2cccnc12`, the result_ITMP is recorded as -2.78%.

Turning to `Nc1ccc2ncnc(NCCc3ccc(Oc4ccccc4)cc3)c2c1`, the result_ITMP worked out at 1.1%.

With `CC(CN(C)C)CN1c2ccccc2Sc2ccccc21` (stereo not shown) [R4A_0005516_001 / SPE_A49225603], the result_ITMP amounted to 81.1%.

Regarding `CN(C(=O)Cc1ccccc1)C(CN1CCCC1)c1ccccc1` (stereo not shown), the result_ITMP turned out to be 6.1%.

On to `O=C(OCCN1CCOCC1)C1(c2ccccc2)CCCCC1`, for which the result_ITMP is on record as -1.69%.

Take `CC(C)C[C@H](NC(=O)[C@H](Cc1ccccc1)NC(=O)c1cnccn1)B(O)O`: the result_ITMP is reported as -11%.

`COC(F)(F)C(Cl)Cl`: the result_ITMP is -4.27%.

For the molecule `CC(Cc1ccccc1)NCCC(c1ccccc1)c1ccccc1` (stereo not shown), the result_ITMP worked out at 33.2%.

Turning to `CNc1ncnc2c1ncn2[C@@H]1O[C@H](CO)[C@@H](O)[C@H]1O`, the result_ITMP is given as -4.94%.

In the case of `Cc1ncc([N+](=O)[O-])n1C`, the result_ITMP amounted to 10%.

As for `O=C(c1ccc(F)cc1)C1CCN(CCCCc2ccccc2)CC1`, the result_ITMP was 1.69%.

On to `CC(C)(C)C(=O)OCOC(=O)[C@@H]1N2C(=O)[C@@H](/N=C/N3CCCCCC3)[C@H]2SC1(C)C`, for which the result_ITMP is listed as -0.91%.

As to `Cn1nccc1Nc1nccc(-c2ccn([C@H](CO)c3ccc(Cl)c(F)c3)c(=O)c2)n1` [R4A_0003897_001 / SPE_K86309810], the result_ITMP is -3.82%.

With `OC(CNc1ccccc1)Cn1c2ccc(Br)cc2c2cc(Br)ccc21` (stereo not shown), the result_ITMP is given as -2.55%.

In the case of `CC(C)NC(=O)COc1cccc(-c2nc(Nc3ccc4[nH]ncc4c3)c3ccccc3n2)c1`, the result_ITMP is given as -0.28%.

`CS(=O)(=O)Nc1cc2occ(NC=O)c(=O)c2cc1Oc1ccccc1`: the result_ITMP is reported as -8.41%.

Consider `Cc1c(N)nc([C@H](CC(N)=O)NC[C@@H](N)C(N)=O)nc1C(=O)N[C@H](C(=O)N[C@@H](C)[C@H](O)[C@@H](C)C(=O)N[C@@H](C(=O)NCCc1nc(-c2nc(C(=O)NCCC[S+](C)C)cs2)cs1)[C@@H](C)O)C(O[C@H]1O[C@H](CO)[C@H](O)[C@@H](O)[C@H]1O[C@H]1O[C@H](CO)[C@@H](O)[C@H](OC(N)=O)[C@@H]1O)c1c[nH]cn1` (stereo partly shown), for which the result_ITMP is 7.07%.

Take `N[C@@H](CC(=O)O)C(=O)O`: the result_ITMP was 6.71%.

Consider `N#Cc1ccccc1-c1cc(-c2ccccn2)cn(-c2ccccc2)c1=O`, for which the result_ITMP is reported as -1.57%.

As to `C[C@@H](O)[C@H]1C(=O)N2C(C(=O)O)=C(SCCNC=N)C[C@H]12`, the result_ITMP is recorded as 1.46%.

As for `c1ccc2c(c1)CCCC2C1=NCCN1` (stereo not shown), the result_ITMP is -2.4%.

With `COc1cccc(CCc2ccccc2OCC(CN(C)C)OC(=O)CCC(=O)O)c1` (stereo not shown), the result_ITMP is on record as 64.3%.

As for `C=C(C)[C@@H]1CC[C@]2(C(=O)O)CC[C@]3(C)[C@H](CC[C@@H]4[C@@]5(C)CC[C@H](O)C(C)(C)[C@@H]5CC[C@]43C)[C@@H]12`, the result_ITMP is on record as -4.18%.

As for `O=C1CC2OCC=C3CN4CC[C@]56c7ccccc7N1C5[C@H]2[C@H]3CC46` (stereo partly shown), the result_ITMP came out at 1.13%.

Regarding `O=c1ccc2cc3ccoc3cc2o1`, the result_ITMP is reported as -3.37%.

As for `Nc1nnc(Sc2ncc([N+](=O)[O-])s2)s1`, the result_ITMP is listed as -17.1%.

Take `N[C@H](C(=O)O)c1ccc(C(=O)O)c(C(=O)O)c1`: the result_ITMP is -0.83%.

Turning to `N[C@@H](CS)C(=O)O`, the result_ITMP is -1.13%.

For `CC(=O)CC(=O)[O-]`, the result_ITMP came to 1.77%.

With `O=C1NCCN1c1ncc([N+](=O)[O-])s1`, the result_ITMP was -3.62%.

In the case of `C[Se]CC[C@H](N)C(=O)O`, the result_ITMP is recorded as -2.64%.

Turning to `C1N2CN3CN1CN(C2)C3`, the result_ITMP is listed as -0.33%.

Take `Cc1cccc(C)c1NC1=NCCCS1`: the result_ITMP is reported as 1.07%.

Turning to `CCOC(=O)COc1ccc2c(c1)C[C@@H](NC[C@H](O)c1cccc(Cl)c1)CC2`, the result_ITMP was found to be 13.9%.

As for `C[C@H]1[C@H](C)CC[C@]2(C(=O)O)CC[C@]3(C)C(=CC[C@@H]4[C@@]5(C)C[C@@H](O)[C@H](O)[C@@](C)(CO)[C@@H]5CC[C@]43C)[C@H]12`, the result_ITMP is given as -2.77%.

With `CCOCCn1c(C2CCN(CCc3ccc(C(C)(C)C(=O)O)cc3)CC2)nc2ccccc21`, the result_ITMP was 0.13%.

Take `O=C1CCC[C@@H]2[C@H]3CCCN4CCC[C@@H](CN12)[C@@H]34`: the result_ITMP is reported as -5.82%.

For the molecule `Nc1ccc(S(=O)(=O)NC(=O)c2ccccc2)cc1`, the result_ITMP was -1.93%.

Regarding `CCCCCOc1ccc(-c2ccc(-c3ccc(C(=O)N[C@H]4C[C@@H](O)[C@@H](O)NC(=O)[C@@H]5[C@@H](O)[C@@H](C)CN5C(=O)[C@H]([C@@H](C)O)NC(=O)[C@H]([C@H](O)[C@@H](O)c5ccc(O)cc5)NC(=O)[C@@H]5C[C@@H](O)CN5C(=O)[C@H]([C@@H](C)O)NC4=O)cc3)cc2)cc1` ({pTerphenylCO(4''-OnC5H11)}-[ξOrn(4,5-diOH)]T[Hyp][ξhTyr(βξ-OH,γξ-OH)]T[ξPro(3ξ-OH,4ξ-Me)]; lactam 1-C; configuration not given here), the result_ITMP is -3.94%.

Regarding `C=C(CC)C(=O)c1ccc(OCC(=O)O)c(Cl)c1Cl`, the result_ITMP is -0.2%.

As for `CCNC(=O)[C@H]1O[C@@H](n2cnc3c(N)ncnc32)[C@H](O)[C@@H]1O`, the result_ITMP was -1.12%.

As for `CCCCC/C=C\C/C=C\C/C=C\C/C=C\CCCC(=O)Nc1ccc(O)cc1`, the result_ITMP is -2.52%.

Turning to `CC1(C)N=C(N)N=C(N)N1OCCCOc1cc(Cl)c(Cl)cc1Cl`, the result_ITMP was -6.07%.

Regarding `COC(=O)N[C@H](C(=O)N1CC2(CC2)C[C@H]1c1ncc(-c2ccc3c(c2)C(F)(F)c2cc(-c4ccc5nc([C@@H]6[C@H]7CC[C@H](C7)N6C(=O)[C@@H](NC(=O)OC)C(C)C)[nH]c5c4)ccc2-3)[nH]1)C(C)C`, the result_ITMP worked out at 1.95%.

As to `CC(C)=CCC[C@](C)(O)[C@H]1CC[C@]2(C)[C@@H]1[C@H](O)C[C@@H]1[C@@]3(C)CC[C@H](O[C@@H]4O[C@H](CO)[C@@H](O)[C@H](O)[C@H]4O[C@@H]4O[C@H](CO)[C@@H](O)[C@H](O)[C@H]4O)C(C)(C)[C@@H]3CC[C@]12C`, the result_ITMP is reported as 0.58%.

`Cc1cccc(C)c1NC(=O)c1ccccc1C(=O)O`: the result_ITMP is -7.21%.

For `O=C(COc1cccc2c(=O)[nH]ccc12)c1ccccc1`, the result_ITMP is on record as -1.34%.

As for `CCNC(=O)[C@H]1O[C@@H](n2cnc3c(N)nc(NCCc4ccc(CCC(=O)O)cc4)nc32)[C@H](O)[C@@H]1O`, the result_ITMP is reported as -4.5%.

Consider `O=C(O)Cn1c(C(=O)Nc2nc(-c3ccccc3Cl)cs2)cc2ccccc21`, for which the result_ITMP stood at 0.39%.

Take `CNC(=O)c1c(-c2ccc(F)cc2)oc2cc(N(CCO)S(C)(=O)=O)c(C3CC3)cc12`: the result_ITMP is 0.51%.

On to `[N-]=[N+]=N[C@]1(CO)O[C@@H](n2ccc(N)nc2=O)[C@H](O)[C@@H]1O`, for which the result_ITMP is 0.35%.

Turning to `C[C@](N)(Cc1ccc(O)cc1)C(=O)O`, the result_ITMP is given as -6.58%.

Consider `COc1cc2c(cc1OC)[C@@H]1CC(=O)[C@@H](CC(C)C)CN1CC2`, for which the result_ITMP was 6.09%.

Consider `CC(C)NCC(O)COc1cccc2ccccc12` (racemic), for which the result_ITMP amounted to 25.5%.

Turning to `Cc1nc(Cn2cnc3c2c(=O)n(C)c(=O)n3C)no1`, the result_ITMP was -10.1%.

With `CS(=O)(=O)c1ccc([C@@H](O)[C@@H](CF)NC(=O)C(Cl)Cl)cc1`, the result_ITMP was found to be 2.58%.

As for `Oc1ccc(C2CNCCc3c2cc(O)c(O)c3Cl)cc1` (stereo not shown), the result_ITMP stood at 2.86%.

For `CC(C(=O)O)c1cccc(Oc2ccccc2)c1` (stereo not shown), the result_ITMP is reported as -1.09%.

In the case of `CC1(C)S[C@@H]2[C@H](N)C(=O)N2[C@H]1C(=O)O`, the result_ITMP stood at 0.65%.

On to `CC(C)=CCOc1ccc(/C=C/C(=O)c2ccc(OCC=C(C)C)cc2OCC(=O)O)cc1`, for which the result_ITMP is recorded as -7.43%.
